# Test results reported in the supplement of paper PMC3334620.
# In all, about 33,000 sequences were measured (“E-score (-0.5 to 0.5)”: median about -0.04, highest 2% from about 0.36 on). The list shows a part of the results.
# Biological target: T1, Hmlalpha2 (UniProt P0CY09)
# T1 sequence: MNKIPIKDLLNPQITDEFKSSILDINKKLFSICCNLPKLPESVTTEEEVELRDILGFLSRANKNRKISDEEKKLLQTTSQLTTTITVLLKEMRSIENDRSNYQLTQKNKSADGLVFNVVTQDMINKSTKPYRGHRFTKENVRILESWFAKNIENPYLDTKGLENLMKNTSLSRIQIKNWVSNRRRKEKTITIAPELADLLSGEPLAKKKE
# Assay: PBM E-score (8-mer binding enrichment) (E-score (-0.5 to 0.5)); higher = stronger / more preferred TF binding; most listed sequences are background and not binding sites
# Settings: protein concentration: 200 nM; construct: GST-full length
# Outline: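 Each ungapped eight-base word and its reverse complement, pooled, received an E-score from the Universal PBM Analysis Suite. Underlying scans, normalised with masliner, recorded fluorescent anti-GST bound to GST-tagged yeast transcription factors. These were applied at about 100-200 nM to universal all-10-mer Agilent arrays double-stranded by primer extension.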
row,Sequence,PBM E-score
1,CAGGGTCC,-0.201
2,CGATGATA,0.0847
3,CCCAATAC,0.0536
4,ACCATAAA,0.144
5,ATTTACCC,0.0345
6,GGAGTGTA,0.18
7,AGAGTGCA,-0.0981
8,GAGTGTCA,0.0527
9,TAGACGAA,0.137
10,AAGAACCC,-0.0837
11,AGGAACGG,-0.253
12,CATAACAG,0.174
13,CTTAAAGA,-0.0624
14,AACTTGTA,0.276
15,CCCAAGCG,-0.19
16,GCCCACCA,-0.273
17,ATTAACAC,0.455
18,CTTTGGTA,-0.171
19,TGTTACAA,0.31
20,CATATGAA,-0.0549
21,GAGATCTA,-0.0485
22,GTACTCGA,0.0247
23,GTCCACGA,-0.267
24,TAGCCAGA,-0.0391
25,AGCTAATC,-0.0679

row,Sequence,PBM E-score
1,GGAGCTAC,0.00025
2,AGAGTCTG,-0.282
3,ACGCTCGC,0.0598
4,AATTGTAA,0.193
5,AGCCCAGC,-0.297
6,ACAGGGAA,0.0611
7,CTAGGTAA,0.111
8,CAGTAGCG,-0.122
9,AACTTGTC,0.114
10,TAACTCGA,0.277
11,AAACGAGG,-0.0659
12,ACCGCTAG,-0.194
13,ACACGTGA,0.318
14,TATATTAA,0.236
15,ACTGCGAC,0.00035
16,CACCTGCC,-0.148
17,AGATGTAT,0.251
18,ACAGAATC,-0.104
19,AAAGGAGT,-0.0272
20,ACCTGGTG,-0.11
21,GGTCCAAC,-0.266
22,AATCGCGG,-0.223
23,GATGTACA,0.379
24,CGTCAGGA,-0.0605
25,GACTGAAC,-0.0268

row,Sequence,PBM E-score
1,ATCGAGGC,-0.0868
2,CAACGATG,0.115
3,GATGACAC,0.258
4,AACTTTCG,-0.0626
5,ACGCCCGC,-0.134
6,AATGGATA,-0.0546
7,GTCTGTCA,0.0178
8,CCCTCTGA,-0.271
9,AGGAAAAG,-0.0101
10,GTTCAGCA,0.0151
11,GTGGGCCA,-0.0919
12,CATCGTCA,0.056
13,ACTGTTAA,0.208
14,CTCTAGAG,-0.148
15,ACTAGAGT,-0.0286
16,AATCTGCG,-0.0588
17,AACAGTAA,0.0289
18,AAAAAGTA,0.203
19,CCCTTTAC,0.134
20,ACAGCTCT,-0.164
21,ACCGCGGT,-0.0762
22,ATATATCC,0.0178
23,CCCTTCCG,-0.371
24,AGGTAGAT,0.0792
25,CATTAGGA,-0.0149

row,Sequence,PBM E-score
1,GGTCGTAC,-0.105
2,GGGTGGAA,-0.273
3,GAAGACTC,-0.114
4,TATTAAAA,0.24
5,GTGCTGAA,0.0354
6,GTCCCGAC,-0.144
7,ACCGACGA,-0.225
8,CTATCCTC,-0.329
9,ATATCGGC,-0.111
10,TACCAGTA,0.0973
11,GGAAGTAC,-0.0282
12,GACGTCGC,-0.0575
13,CATGGGCC,-0.0147
14,CAAGGTTC,-0.162
15,CCCAACTC,-0.174
16,GACAAGAA,0.0754
17,AAAACCTT,-0.171
18,AAAAGATG,0.18
19,CCGAGATC,-0.256
20,CAGAACCA,-0.188
21,GATCGTAA,0.0511
22,CTGCAAAA,0.0334
23,CGCCAGAG,-0.305
24,ATTAGAAT,0.117
25,AACGCGAT,0.26

row,Sequence,PBM E-score
1,ACGCATTG,0.172
2,ATTACAGC,0.141
3,CAAGGATC,0.0403
4,CCCGGCAG,-0.33
5,ATGCGTGG,-0.125
6,ACTAGATC,0.061
7,GACCTCGA,-0.0695
8,ATCTAAGG,-0.25
9,ATCCGTGA,-0.161
10,ACCTAACG,0.0448
11,AAAGTGTA,0.177
12,TTGAACAA,0.259
13,TCGCTTAA,0.0673
14,AGACCGTA,-0.158
15,CTCACTTA,0.0199
16,ATGACGCG,0.26
17,CACGTGGA,0.104
18,AACTGTCC,-0.223
19,CGCCCTAG,-0.334
20,TGATTGAA,0.222
21,CATGTTTC,0.333
22,CTCGTAAA,0.266
23,ATTTATCA,0.179
24,AGGCCCGA,-0.35
25,ACGAAAGA,-0.0344

row,Sequence,PBM E-score
1,ATAACGAG,0.205
2,GGACTCAA,-0.168
3,GGAACGCA,-0.155
4,CACTTAGA,0.119
5,CGTTACAA,0.318
6,GTAACAGA,0.245
7,CCCGCGAC,-0.197
8,AGTTAGCG,0.0775
9,CAAGCCCC,-0.183
10,GAGCGGCA,-0.305
11,ATATAAAT,0.125
12,CAGTGACA,0.118
13,ACTAGCTG,-0.0534
14,AACCCAAA,0.15
15,ATAGAGAG,-0.252
16,TGTTGCAA,0.321
17,TATGAGCA,-0.136
18,CACCGAGC,-0.00628
19,GGTATACC,-0.128
20,CCATGCAC,-0.0817
21,AGTGTTCC,-0.0674
22,GGGGACCA,-0.175
23,ACTTTTCC,-0.0657
24,CGTTATTC,0.155
25,GCTGAGAA,-0.247

row,Sequence,PBM E-score
1,AGCATGTA,0.458
2,CTTATGAC,0.0464
3,GAATTCGA,-0.0613
4,AATCCTGT,0.135
5,AGCGGTGG,-0.307
6,CAAGCTCA,-0.0894
7,CGATTATA,0.00421
8,AAGTCCTC,-0.282
9,AAAGCGGC,-0.0147
10,CGAAGTTA,0.0538
11,CTCTCTTA,-0.0598
12,AGTGCTCA,-0.0699
13,AGACGTGG,-0.0301
14,ACTTTAAA,0.201
15,CGAATAAC,0.133
16,ACCGAGGT,-0.247
17,GAGCCAGC,-0.0829
18,GTGTTCAA,0.333
19,CCTCACCG,-0.183
20,CCCCCGAC,-0.195
21,CGAGATAC,0.133
22,GTGGTCAA,-0.0351
